Experiment in all cases: Viability of human cancer cell lines after 72 h of drug (GDSC screen)
Compound in test [1]: CC(=O)O[C@@]12CO[C@@H]1C[C@H](O)[C@@]1(C)C(=O)[C@H](O)C3=C(C)[C@@H](OC(=O)[C@H](O)[C@@H](NC(=O)OC(C)(C)C)c4ccccc4)C[C@@](O)([C@@H](OC(=O)c4ccccc4)[C@H]21)C3(C)C [Docetaxel]
Particulars: top dose 0.0125 µM. The method, then: (§1)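 Human cancer cell lines in 384-well plates, medium with 10% serum, drug for 72 h over a 256-fold dose range (nine 2-fold or five 4-fold steps up to the top dose). Adherent lines were fixed and stained with the nucleic acid dye Syto60, suspension lines read with resazurin; signal relative to control wells, capped at 0 and 100%. One two-parameter sigmoid per drug and line, fitted in a mixed model over all curves with the slope shared within a line.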

Compound in test [2]: CC1(C)CNc2cc(NC(=O)c3cccnc3NCc3ccncc3)ccc21 [AMG-706]
To be noted: top dose 2 µM; top dose inferred. The method, then: as §1

Compound in test [3]: CCOc1nc(NC(=O)Cc2cc(OC)ccc2OC)cc(N)c1C#N [JNK Inhibitor VIII]
Particulars: top dose 10 µM; top dose inferred. As to the method:
as §1

Compound in test [4]: CN1CCN(c2ccc([N+](=O)[O-])c3no[n+]([O-])c23)CC1 [NSC-207895]
Particulars: top dose 20 µM; top dose inferred. The method, then: as §1

Compound in test [5]: COC(=O)[C@H](CCSC)NC(=O)c1ccc(NC[C@@H](N)CS)cc1-c1ccccc1 [FTI-277]
To be noted: top dose 1.024 µM; top dose inferred. As to the method: as §1

Compound in test [6]: COCC[n+]1c2c(n(Cc3cnccn3)c1C)C(=O)c1ccccc1C2=O [YM155]
Particulars: top dose 5.12 µM. The method, then:
as §1

Compound in test [7]: C[C@]1(O)C[C@@H](c2nc(-c3ccc4ccc(-c5ccccc5)nc4c3)c3c(N)nccn32)C1 [OSI-906]
Particulars: top dose 2.56 µM; top dose inferred. As to the method:
as §1

Compound in test [8]: Cc1ccc(C(=O)N(CCCN)[C@@H](c2nc3cc(Cl)ccc3c(=O)n2Cc2ccccc2)C(C)C)cc1 [SB-715992]
Particulars: top dose 0.128 µM; top dose inferred. The method, then:
as §1

Compound in test [9]: Cc1sc2c(c1C)C(c1ccc(Cl)cc1)=N[C@@H](CC(=O)OC(C)(C)C)c1nnc(C)n1-2 [JQ1]
The method, then: as §1

Compound in test [10]: O=C(/C=C/c1cccc(S(=O)(=O)Nc2ccccc2)c1)NO [Belinostat]
Particulars: top dose 20 µM; top dose inferred. The method, then:
as §1

Compound in test [11]: c1ccc2c(CCNc3ccc(Nc4ccncc4)cc3)c[nH]c2c1 [JNJ-26854165]
To be noted: top dose 10 µM. As to the method: as §1

[12] abbreviates: top dose 1 µM, screen: GDSC drug entry 1218, top dose inferred.
Where [13] appears, read: top dose 2.56 µM, screen: GDSC drug entry 163.

A lower IC50 marks a more sensitive line; fits outside the tested doses are given as limits. AUC sums up the same curve from the lowest dose to the 256-fold higher top dose; it is 1 without any effect and falls as sensitivity rises. For part of these data: A top dose marked as inferred comes from the curve model; the source does not state it. For part of these data: An entry number marks a drug with two screens in the source, which often give different values.

For orientation: IC50 means the midpoint of a concentration-inhibition curve.

SW1417 (large intestine, adherent): the AUC in test [1] was determined as 0.653; in test [2] it was 0.949; in test [3] it was 0.976; in test [4] it was 0.982; in [5] it was 0.986; in test [6], 0.203. The AUC is 0.984 in test [7]; 0.985 in [8]; 0.885 in [9] (setting [12]); 0.686 in test [9] (setting [13]); 0.52 in test [10]; 0.952 in test [11]. In addition, the IC50 was 0.00224 µM in test [1]; above 2 µM in [2]; above 10 µM in [3]; above 20 µM in test [4]; above 1.02 µM in test [5]; 0.0353 µM in test [6]. The IC50 in [7] is above 2.56 µM; in test [8], above 0.128 µM; in test [9] (setting [12]) it was above 1 µM; in test [9] (setting [13]) it was 0.585 µM; in [10], 1.43 µM; in [11], above 10 µM.
For SW1710 (bladder, adherent), the AUC in [1] was 0.488; in [2], 0.981; in test [3] it was 0.97; in test [4] it was 0.853; in test [5], 0.873; in test [6], 0.049. Besides, the AUC in test [7] is 0.862; in test [8] it was 0.829; in [9] (setting [12]), 0.969; in test [9] (setting [13]), 0.355; in test [10], 0.436; in test [11], 0.849. Besides, the concentration for half-maximal inhibition (IC50) in test [1] was 0.000725 µM; in test [2], above 2 µM; in test [3], above 10 µM; in test [4] it was 16.4 µM; in test [5] it was above 1.02 µM; in test [6], below 0.02 µM. In addition, the IC50 in test [7] was 2.31 µM; in [8] it was 0.0834 µM; in test [9] (setting [12]), above 1 µM; in test [9] (setting [13]), 0.0628 µM; in [10], 0.833 µM; in test [11], 7.83 µM.
Saos-2 (osteosarcoma, adherent): the AUC in [1] is 0.648; in test [2] it was 0.978; in test [3], 0.98; in test [4], 0.981; in test [5] it was 0.886; in test [6], 0.95. For the same cell line, the AUC in test [7] was 0.61; in test [8], 0.974; in test [9] (setting [12]) it was 0.978; in [9] (setting [13]), 0.454; in [10], 0.981; in test [11], 0.904. The IC50 is 0.0024 µM in test [1]; above 2 µM in test [2]; above 10 µM in test [3]; above 20 µM in test [4]; above 1.02 µM in test [5]; above 5.12 µM in test [6]. Also, the concentration for half-maximal inhibition (IC50) in [7] is 0.364 µM; in test [8], above 0.128 µM; in [9] (setting [12]), above 1 µM; in test [9] (setting [13]) it was 0.114 µM; in test [10], above 20 µM; in test [11] it was above 10 µM.
For the cell line T84 (large intestine, adherent), the AUC came to 0.952 in [1]; 0.988 in test [2]; 0.983 in [3]; 0.884 in test [4]; 0.989 in [5]; 0.235 in [6]. Besides, the AUC is 0.732 in [7]; 0.904 in [8]; 0.987 in [9] (setting [12]); 0.974 in test [9] (setting [13]); 0.523 in test [10]; 0.982 in [11]. For the same cell line, the IC50 in test [1] is above 0.0125 µM; in test [2] it was above 2 µM; in test [3], above 10 µM; in test [4], above 20 µM; in test [5] it was above 1.02 µM; in [6] it was 0.0538 µM. Moreover, the IC50 in test [7] is 0.744 µM; in [8], above 0.128 µM; in test [9] (setting [12]) it was above 1 µM; in test [9] (setting [13]), above 2.56 µM; in [10], 1.45 µM; in [11] it was above 10 µM.
For the cell line TGBC11TKB (stomach, adherent), the AUC in [1] was 0.876; in [2], 0.99; in [3] it was 0.989; in [4], 0.992; in [5], 0.99; in test [6], 0.633. For the same cell line, the AUC in test [7] was 0.98; in test [8] it was 0.982; in test [9] (setting [12]) it was 0.974; in test [9] (setting [13]), 0.953; in [10], 0.47; in test [11], 0.97. Further, the IC50 is 0.00995 µM in test [1]; above 2 µM in test [2]; above 10 µM in test [3]; above 20 µM in test [4]; above 1.02 µM in test [5]; 0.71 µM in [6]. In addition, the IC50 was above 2.56 µM in [7]; above 0.128 µM in [8]; above 1 µM in test [9] (setting [12]); above 2.56 µM in test [9] (setting [13]); 1.05 µM in test [10]; above 10 µM in test [11].
For TMK-1 (stomach, adherent), the AUC in [1] was 0.949; in test [2], 0.971; in [3], 0.986; in test [4] it was 0.982; in [5] it was 0.964; in test [6], 0.244. The AUC was found to be 0.867 in test [7]; 0.93 in [8]; 0.984 in [9] (setting [12]); 0.804 in test [9] (setting [13]); 0.802 in [10]; 0.852 in [11]. Moreover, the IC50 was above 0.0125 µM in test [1]; above 2 µM in [2]; above 10 µM in [3]; above 20 µM in [4]; above 1.02 µM in [5]; 0.0554 µM in test [6]. The IC50 is 2.55 µM in test [7]; above 0.128 µM in [8]; above 1 µM in test [9] (setting [12]); 1.38 µM in [9] (setting [13]); 10.6 µM in test [10]; 8.47 µM in test [11].
